Results as given in PubChem BioAssay AID651820 (National Center for Advancing Translational Sciences (NCATS), 2012).
In all, about 340,000 compounds went through this assay and about 12,000 (3.5%) were called active. Inconclusive means that the source gave no clear call. Such entries were picked first, then a sample of the others. Calls follow the shape of the dose curve; as a rule, active = well fitted inhibition curve with a large enough effect; inconclusive = small, poorly fitted or top-dose-only effect, or another doubt; inactive = no such curve, though single readings can be large or run the other way. Potencies of inconclusive entries are left out as doubtful fits.

Assay: qHTS Assay for Inhibitors of Hepatitis C Virus (HCV)
Details: Huh7.5.1 HCVcc-Cre (HCVcc is cell-culture hepatitis C virus) infection, luciferase reporter, 44 h; series mostly up to 41.8 µM
Summary of the method: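 Seed cells (1,000/well) for 4 h; treat with compound and infect with HCVcc-Cre, moi about 0.5. Incubate 44 h, then detect luciferase activity.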
Potency is read from the fitted curve at half-maximal effect; tags tell the direction and shape of the fitted curve.

Compound	Potency
O=[N+]([O-])c1ccc(-c2ccc(/C=N/n3cnnc3)o2)c(Br)c1	inactive
CC1CN(C(=S)SCC(=O)c2ccc([N+](=O)[O-])cc2)CC(C)O1 (stereo unspecified)	inconclusive [inhibitor, partial curve]
Fc1ccccc1/C=N/n1cc(-c2ccccc2)[nH]c1=S	inactive
CCOC(=O)c1ccc(NC(=O)c2ccc[n+]([O-])c2)cc1	inactive
Cc1oc(-c2ccc(Cl)cc2)nc1CN1CCCC(C(=O)NCc2ccccn2)C1 (stereo unspecified)	inconclusive [inhibitor, partial curve]
CC(=O)Nc1cccc(C(=O)OCC(=O)Nc2ccc(Cl)cn2)c1	inactive
CC(C)Oc1ccccc1C1CC(=O)Nc2cc3c(cc21)OCCO3 (stereo unspecified)	inconclusive [inhibitor, partial curve]
O=C(NC(=S)NC(=O)c1ccccc1F)c1ccccc1F	inactive
CCOC(=O)c1ccc(-c2c(-c3cc(OC)c(OC)c(OC)c3)noc2C)cc1F	inconclusive [inhibitor, single point]
COc1ccc(NC(C)C(=O)N/N=C/c2ccccc2OCc2ccc(Br)cc2)cc1 (stereo unspecified)	inconclusive [inhibitor, single point]
COc1cccc(CN2C(=NC(=O)C3CC3)SC3CS(=O)(=O)CC32)c1 (stereo unspecified)	inactive
O=C(c1ccc2c(c1)N(Cc1cccc(Cl)c1)C(=O)c1ccccc1S2(=O)=O)N1CCN(c2ccccn2)CC1	active: 14.1 µM
CCOC(=O)c1ccc(NC(=S)NCc2ccccc2)cc1	inactive
COc1ccc(C(=O)C2CCN(C(=O)c3ccc(OC)cc3)CC2)cc1	active: 7.94 µM
CC(C)N(C(=O)Cn1cc(S(=O)(=O)CC(=O)NCc2ccccc2)c2ccccc21)C(C)C	inactive
CC(=O)c1c(C(C)=O)c(C)n(-c2ccc3ncccc3c2)c1C	inconclusive [inhibitor, partial curve]
NS(=O)(=O)c1ccc(CCNC(=O)c2ccc3nc4ccc(Cl)cc4c(=O)n3c2)cc1	inconclusive [inhibitor, partial curve]
CC1C(=O)N(Cc2ccccc2F)c2ccccc2N1C(=O)c1c(F)cccc1F (stereo unspecified)	inconclusive [inhibitor, single point]
Cc1cc(SCC(=O)Nc2ccc(O)cc2)n2ncc(-c3ccccc3)c2n1	inconclusive [inhibitor, full curve]
O=C(CNc1ccc(Br)cc1)c1ccc(O)cc1	inactive
CC(C)NC(=O)Nc1cccc2c1O[C@H](CN(C)C(=O)Nc1ccc(C(F)(F)F)cc1)[C@@H](C)CN([C@H](C)CO)C2=O	inconclusive [inhibitor, full curve, poor fit]
